Measurements: PubChem BioAssay AID1240 (Sanford-Burnham Center for Chemical Genomics, 2008)
The whole screen tested about 50,000 compounds, of which about 800 (1.6%) showed an effect of 50% or more. This is one part of the list.

The compounds below were run against Bcl-2-like protein 10 (Homo sapiens) (UniProt Q9HD36) (assay: TR3 peptide-Bcl-B binding displacers, biochemical primary FP assay, phenotype converters (AID 1240;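 further: 0% = Bcl-B with tracer peptide and DMSO and 100% = tracer peptide lacking Bcl-B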)). Conditions: GST-Bcl-B / FITC-TR3 peptide fluorescence polarization; stronger effect = higher value; compound at 3.75 mg/L.
Sequence of UniProt Q9HD36 (Q9HD36 whole entry, looked up): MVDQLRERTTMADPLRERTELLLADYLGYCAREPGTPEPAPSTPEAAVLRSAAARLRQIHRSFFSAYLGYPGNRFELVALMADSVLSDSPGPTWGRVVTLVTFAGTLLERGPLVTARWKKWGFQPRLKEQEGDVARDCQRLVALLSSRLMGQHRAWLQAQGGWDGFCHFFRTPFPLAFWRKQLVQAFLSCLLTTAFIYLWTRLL

Row | SMILES | displacement
1 | COc1ccc(N(CC(=O)N(Cc2ccccc2)Cc2ccccc2)S(=O)(=O)c2ccccc2)cc1 | 3.2%
2 | COc1cccc(C(=O)N2N=C(c3cccnc3)CC2(O)C(F)(F)F)c1 (stereo not drawn) | -2.9%
3 | COc1ccc(CCNC(=O)C(=O)NCCCOC(C)C)cc1 | 10%
4 | Cc1ccc(C(=O)Nc2cccnc2)o1 | 1.3%
5 | CN(C)c1ccc(/C=C2\SC(=S)N(/N=C/c3ccc(N(C)C)cc3)C2=O)cc1 | 10.4%
6 | Cc1ccc(C2C3=C(CC(C)(C)CC3=O)NC3=C2C(=O)CC(C)(C)C3)o1 | 1.6%
7 | N#Cc1c(N)nc2cc(N)ccc2c1-c1ccc(O)cc1 | -1.5%
8 | CCOc1ccc(N(CC(N)=O)S(C)(=O)=O)cc1 | 14%
9 | CCCOc1ccc(CCc2n[nH]c(=S)n2-c2ccccc2)cc1 | -8.3%
10 | O=C(NCCSc1ccccn1)c1cccc(Cl)c1 | 1.1%
11 | COc1cc(CN2CCN(Cc3cccc(Cl)c3)CC2)cc(OC)c1 | -7.3%
12 | O=C(NCc1ccccc1)C1CC(=O)N(c2ccc(F)cc2)C1 (stereo not drawn) | 6.1%
13 | CC1=C(C(=O)Nc2ccc(Cl)cc2)C(c2ccc([N+](=O)[O-])cc2)NC(=S)N1 (stereo not drawn) | 4.6%
14 | CC1(C)CC(=O)C2=C(C1)OC1=C(C(=O)CC(C)(C)C1)C2c1ccc(-c2ccc([N+](=O)[O-])cc2Cl)o1 | -1.3%
15 | COc1cccc(C(=O)N2CCN(C3CC4CCC3C4)CC2)c1 (stereo not drawn) | 15.4%
16 | NC(=O)SCC(=O)Nc1ccc(Cl)c(Cl)c1 | 4.7%
17 | COc1ccc(C(=O)Nc2cc3nn(-c4ccc(C)cc4)nc3cc2C)cc1Cl | -1.2%
18 | COc1ccc(OCCCCN2CCN(C)CC2)cc1 | -5.8%
19 | Cc1ccc(-n2ncnc2-c2cccc(Br)c2)cc1Cl | -3.8%
20 | O=[N+]([O-])c1cc(C(F)(F)F)ccc1N1CCN(S(=O)(=O)c2ccc(Cl)cc2)CC1 | 5.2%
21 | O=C(NCCc1nc2ccccc2[nH]1)c1cccc(Br)c1 | 3.1%
22 | COc1cc(C(=S)N2CCCCC2)cc(Br)c1O | -8%
23 | CCOc1ccc(/C=N/N2CCN(C(c3ccccc3)c3ccccc3)CC2)cc1 | -9.6%
24 | CS(=O)(=O)N(CC(=O)Nc1ccc(Oc2ccccc2)cc1)c1ccccc1Cl | 9.5%
25 | CN1C(=O)N2CN(C3CCCCC3)CN3C(=O)N(C)C1C23 (stereo not drawn) | 4.6%

Row | SMILES | displacement
26 | Cc1cccc(N2CCN(C(=O)c3cccnc3)CC2)c1C | 4%
27 | COc1ccc(CCN/C=C2\CC(=O)NC2=O)cc1OC | 12.1%
28 | Clc1cccc(OCCn2ccnc2)c1 | 3.3%
29 | Cc1c(Cl)cccc1N1CC(C(=O)Nc2nccs2)CC1=O (stereo not drawn) | 0.3%
30 | CCC(=O)Nc1ccc(NC(=O)COc2ccccc2)cc1 | -4.5%
31 | CCC(CC)C(=O)NC1CCCCCC1 | -9.7%
32 | CCOC(=O)CCP(=O)(CC)CC | -3.6%
33 | CCOc1ccccc1NC(=O)c1ccc(Cl)c(Cl)c1 | -0.9%
34 | COCc1cc(=O)n2[nH]c(-c3ccc(Br)cc3)cc2n1 | -9.7%
35 | O=C(/C=C/c1ccc(F)cc1)c1cccc([N+](=O)[O-])c1 | -9.3%
36 | Cc1cc(Cl)ccc1NC(=O)c1ccc(I)cc1 | 7.8%
37 | CCOC(=O)c1ccc(N2NC(=O)/C(=C/c3ccc(OC)c(Br)c3)C2=O)cc1 | 8.5%
38 | COc1cc(/C=N/NC(=O)Cc2nnc(N)s2)ccc1OCc1ccc(Cl)cc1Cl | 19.8%
39 | COc1ccc(-c2nnc(SCC(=O)Nc3ccc(C)cc3Br)o2)cc1 | 14.5%
40 | Cc1cc(OCCOc2ncnc3ccccc23)ccc1Cl | -6%
41 | COc1cc(/C=C2\C(=O)NC(=O)N(c3ccc(F)cc3)C2=O)ccc1O | -8.6%
42 | O=C(N/C(=C\c1cccnc1)C(=O)N1CCCCC1)c1cccc(Br)c1 | -8.1%
43 | COc1ccccc1NC(=O)CSc1ccc(Cl)cc1Cl | 16.6%
44 | O=C(Nc1ccc(N2CCOCC2)cc1)c1ccc2c(c1)OCCO2 | 11.2%
45 | c1ccc2c(Oc3ncnc4sc5c(c34)CCCC5)cccc2c1 | -7.2%
46 | Cc1cc(C)c(S(=O)(=O)NCCN2CCOCC2)c(C)c1 | -8.7%
47 | Cc1cc(-c2ccc(/C=c3\sc4nc5cc(Br)cnc5n4c3=O)o2)c(C)c([N+](=O)[O-])c1 | -1.6%
48 | CN1CCN(CCCCOc2ccc(Br)cc2)CC1 | 1.8%
49 | CCOc1ccccc1NC(=O)c1ccc(OC)cc1 | -0.2%
50 | COc1ccc(-c2cc(C(=O)Nc3nc4ccc(S(C)(=O)=O)cc4s3)c3ccccc3n2)cc1 | -1.1%

Row | SMILES | displacement
51 | COc1ccc(C(=O)CC2(O)C(=O)N(C)c3ccccc32)cc1OC (stereo not drawn) | -5.4%
52 | COc1ccc(-c2cc(C(F)(F)F)n3nc(C(=O)OC(C)C)c(Cl)c3n2)cc1 | 2.5%
53 | CCCCn1c(=S)[nH]c2ccccc21 | 4.7%
54 | COc1cc2c(cc1C)/C(=N/OC(=O)c1ccc(OC)c(OC)c1)CCC2 | -7.1%
55 | Cc1ccc(NC(=O)C(C)Oc2ccccc2)c([N+](=O)[O-])c1 (stereo not drawn) | -9.1%
56 | CCc1cc(=O)oc2cc(OCC(C)=O)ccc12 | 10.7%
57 | CCN1CCN(S(=O)(=O)c2ccc(OC)cc2)CC1 | 2.8%
58 | O=C1NC(=O)N(c2ccc(Cl)cc2)C(=O)/C1=C/c1ccc(O)c(I)c1 | -9.7%
59 | COC(=O)c1ccc(C(=O)Nc2cc(Cl)ccc2Cl)cc1NC(=O)c1cc2cccc(O)c2cc1O | -0.2%
60 | COC(=O)C1=C(C)NC2=C(C(=O)c3ccccc32)C1c1cc2c(cc1Br)OCO2 (stereo not drawn) | 13.6%
61 | Nc1nonc1C(=O)N=Nc1c(O)[nH]c2ccccc12 | -8.4%
62 | CCC(=O)c1ccccc1NN1c2ccccc2C(=O)C1(C)OC (stereo not drawn) | -0.9%
63 | COc1ccc(C2=NN(c3ccc(C=O)cc3)C(c3ccc(F)cc3)C2)cc1 (stereo not drawn) | 10%
64 | Cn1c(NC(=O)c2ccco2)cc(=O)n(C)c1=O | -0.8%
65 | CCOC(=O)C(C(=O)Nc1ccc(C)cc1)C1CCCCC1 (stereo not drawn) | 2.5%
66 | Cc1ccc(C(C)C)c(OCC(=O)Nc2ccc(C)cc2[N+](=O)[O-])c1 | 1.4%
67 | COC(=O)CNC(=O)C1COc2ccccc2O1 (stereo not drawn) | 11.4%
68 | CCOc1ccc(NC(=O)CN(c2cccc(Br)c2)S(=O)(=O)c2ccccc2)cc1 | 2.4%
69 | O=C(Nc1ccccc1-c1nc2ccccc2[nH]1)c1ccc(Cl)cc1Cl | -11.8%
70 | O=[N+]([O-])c1ccc(/C=N/C(=S)NNc2ccccc2)o1 | -4.7%
71 | O=C1NC2NC(=O)N(C3CCCCC3)C2N1 (stereo not drawn) | 0.6%
72 | O=C(CSc1nc2ccccc2c(=O)[nH]1)c1ccccc1 | 12%
73 | Cc1cc(Cl)ccc1OCC(=O)NNC(=O)c1ccc2ccccc2c1O | -16.8%
